Measurements as given in the supplement of paper PMC8007513.
Counter-ions that a name gives are not always drawn. ± gives the standard error. Among all 1,300 compounds or so, about 130 (10%) showed an effect of 50% or more. The entries are a selection whose mix differs from that of the whole data set.

Tested on: Trichoderma virens ATCC 9645
Assay: growth yield (OD600) with compound + IPBC relative to untreated control; higher = less growth inhibition
Settings: compound concentration: 100 uM, IPBC concentration: 200 ng/ml
Outline: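 Trichoderma virens ATCC 9645 spores, from potato dextrose agar plates grown for 7 days, were brought to 15,000 spores ml^−1 in potato dextrose broth and dispensed as 100 μl aliquots into 96-well plates. Each aliquot received library compounds at 100 μM final, with or without a biocide at 200 ng ml^−1, before growth at 30 °C and OD600 readings on a BioTek EL800 at 40 h and 72 h. Growth is expressed relative to the control containing neither agent and represents means of duplicate screens.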

SMILES | growth yield (40 h) [%] | growth yield (72 h) [%]
O=C(Nc1ccc([N+](=O)[O-])cc1Cl)c1cc(Cl)ccc1O [Niclosamide] + CCCCNC(=O)OCC#CI [3-iodo-2-propynyl butylcarbamate (IPBC)] | 83.7 ± 2.4 | 90.4 ± 2.5
CC(C)C(=O)c1c(C(C)C)nn2ccccc12 [Ibudilast] + CCCCNC(=O)OCC#CI [3-iodo-2-propynyl butylcarbamate (IPBC)] | 60.52 ± 0.48 | 73.1 ± 0.1
CC(C)NCC(O)COc1cccc2[nH]ccc12 (centres undefined) [Pindolol] + CCCCNC(=O)OCC#CI [3-iodo-2-propynyl butylcarbamate (IPBC)] | 105 ± 2.7 | 102.25 ± 0.1
C[C@]12CCC(=O)C=C1C=C[C@@H]1[C@@H]2CC[C@@]2(C)[C@H]1CC[C@@]2(O)CCC(=O)O [Canrenoic acid potassium salt] + CCCCNC(=O)OCC#CI [3-iodo-2-propynyl butylcarbamate (IPBC)] | 85.5 ± 8.9 | 90.4 ± 6.1
OC(CCN1CCCC1)(c1ccccc1)C1CCCCC1 (centres undefined) [Procyclidine hydrochloride] + CCCCNC(=O)OCC#CI [3-iodo-2-propynyl butylcarbamate (IPBC)] | 84.8 ± 2.9 | 91.66 ± 0.63
CCCCOc1ccc(C(=O)CCN2CCCCC2)cc1 [Dyclonine hydrochloride] + CCCCNC(=O)OCC#CI [3-iodo-2-propynyl butylcarbamate (IPBC)] | 75.4 ± 1.1 | 90.8 ± 1.5
Cn1nnc2c(C(N)=O)ncn2c1=O [Temozolomide] + CCCCNC(=O)OCC#CI [3-iodo-2-propynyl butylcarbamate (IPBC)] | 83.5 ± 1.3 | 88.5 ± 2.1
CC(C)(C)CC(C)(C)c1ccc(OCCOCC[N+](C)(C)Cc2ccccc2)cc1 [Benzethonium chloride] + CCCCNC(=O)OCC#CI [3-iodo-2-propynyl butylcarbamate (IPBC)] | 3.18 ± 0.32 | 2.52 ± 0.42
CC(C)(C)NC(=O)[C@H]1CC[C@H]2[C@@H]3CC[C@H]4NC(=O)C=C[C@]4(C)[C@H]3CC[C@]12C [Finasteride] + CCCCNC(=O)OCC#CI [3-iodo-2-propynyl butylcarbamate (IPBC)] | 84.2 ± 7.9 | 87.5 ± 6.7
Nc1nc(N)c2nc(-c3ccccc3)c(N)nc2n1 [Triamterene] + CCCCNC(=O)OCC#CI [3-iodo-2-propynyl butylcarbamate (IPBC)] | 88.31 ± 0.64 | 94.7 ± 2.6
Cc1c(Nc2ncccc2C(=O)O)cccc1C(F)(F)F [Flunixin meglumine] + CCCCNC(=O)OCC#CI [3-iodo-2-propynyl butylcarbamate (IPBC)] | 80.2 ± 7.5 | 92.3 ± 5.2
CC[C@H](c1ccc(O)cc1)[C@@H](CC)c1ccc(O)cc1 [Hexestrol] + CCCCNC(=O)OCC#CI [3-iodo-2-propynyl butylcarbamate (IPBC)] | 68.9 ± 5.4 | 88.4 ± 3.9
C[C@H](CS)C(=O)N1CCC[C@H]1C(=O)O [Captopril] + CCCCNC(=O)OCC#CI [3-iodo-2-propynyl butylcarbamate (IPBC)] | 90.1 ± 1.1 | 90.1 ± 1.1
CN(Cc1cc(Br)cc(Br)c1N)C1CCCCC1 [Bromhexine hydrochloride] + CCCCNC(=O)OCC#CI [3-iodo-2-propynyl butylcarbamate (IPBC)] | 85.5 ± 4.8 | 91.1 ± 1.4
CC1(C)O[C@@H]2C[C@H]3[C@@H]4C[C@H](F)C5=CC(=O)C=C[C@]5(C)[C@H]4[C@@H](O)C[C@]3(C)[C@]2(C(=O)CO)O1 [Flunisolide] + CCCCNC(=O)OCC#CI [3-iodo-2-propynyl butylcarbamate (IPBC)] | 97.1 ± 11 | 97.5 ± 10
NCCc1ccc(O)c(O)c1 [Dopamine hydrochloride] + CCCCNC(=O)OCC#CI [3-iodo-2-propynyl butylcarbamate (IPBC)] | 108 ± 2.7 | 102 ± 1.5
Cc1c(O)cccc1C(=O)N[C@@H](CSc1ccccc1)[C@H](O)CN1C[C@H]2CCCC[C@H]2C[C@H]1C(=O)NC(C)(C)C [Nelfinavir mesylate] + CCCCNC(=O)OCC#CI [3-iodo-2-propynyl butylcarbamate (IPBC)] | 78.2 ± 2.2 | 92.61 ± 0.1
CCSc1ccc2c(c1)N(CCCN1CCN(C)CC1)c1ccccc1S2 [Thiethylperazine dimalate] + CCCCNC(=O)OCC#CI [3-iodo-2-propynyl butylcarbamate (IPBC)] | 4.45 ± 0.32 | 3.25 ± 0.1
CN(C)CCC(c1ccccc1)c1ccccn1 (centres undefined) [Pheniramine maleate] + CCCCNC(=O)OCC#CI [3-iodo-2-propynyl butylcarbamate (IPBC)] | 88.3 ± 1.3 | 91.3 ± 1.4

SMILES | growth yield (40 h) [%] | growth yield (72 h) [%]
CC(=O)OC(C)C[N+](C)(C)C (centres undefined) [Methacholine chloride] + CCCCNC(=O)OCC#CI [3-iodo-2-propynyl butylcarbamate (IPBC)] | 111 ± 3.8 | 105 ± 4.5
CCCCOc1ccc(CC(=O)NO)cc1 [Bufexamac] + CCCCNC(=O)OCC#CI [3-iodo-2-propynyl butylcarbamate (IPBC)] | 99.59 ± 0.16 | 95.438 ± 1e-14
C=CCc1ccccc1OCC(O)CNC(C)C (centres undefined) [Alprenolol hydrochloride] + CCCCNC(=O)OCC#CI [3-iodo-2-propynyl butylcarbamate (IPBC)] | 93.7 ± 12 | 97.1 ± 7.8
Cc1ccc(O)c([C@H](CCN(C(C)C)C(C)C)c2ccccc2)c1 [Tolterodine tartrate] + CCCCNC(=O)OCC#CI [3-iodo-2-propynyl butylcarbamate (IPBC)] | 85.8 ± 4.1 | 90.19 ± 0.42
O=C(O)c1cc(=O)c2c(OCC(O)COc3cccc4oc(C(=O)O)cc(=O)c34)cccc2o1 [Cromolyn disodium salt] + CCCCNC(=O)OCC#CI [3-iodo-2-propynyl butylcarbamate (IPBC)] | 107 ± 20 | 103 ± 15
Clc1ccc(COC(Cn2ccnc2)c2ccc(Cl)cc2Cl)cc1 (centres undefined) [Econazole nitrate] + CCCCNC(=O)OCC#CI [3-iodo-2-propynyl butylcarbamate (IPBC)] | 3.18 ± 0.32 | 2.73 ± 0.42
Clc1ccccc1C(c1ccccc1)(c1ccccc1)n1ccnc1 [Clotrimazole] + CCCCNC(=O)OCC#CI [3-iodo-2-propynyl butylcarbamate (IPBC)] | 5.08 ± 0.32 | 3.46 ± 0.1
C=CC[N@@+]12CC[C@@]34c5ccccc5N5/C=C6/[C@H]7C[C@H]8[C@@]9(CC[N@@+]8(CC=C)C/C7=C/CO)c7ccccc7N(/C=C(/[C@@H](C[C@@H]31)/C(=C\CO)C2)[C@H]54)[C@@H]69 [Alcuronium chloride] + CCCCNC(=O)OCC#CI [3-iodo-2-propynyl butylcarbamate (IPBC)] | 6.83 ± 0.16 | 35.4 ± 3.4
CCCC(C(=O)OCCN(CC)CC)(c1ccccc1)c1ccccc1 [Proadifen hydrochloride] + CCCCNC(=O)OCC#CI [3-iodo-2-propynyl butylcarbamate (IPBC)] | 75 ± 0.95 | 97.1 ± 2.7
O=P(O)(O)C(O)(Cc1cccnc1)P(=O)(O)O [Risedronic acid monohydrate] + CCCCNC(=O)OCC#CI [3-iodo-2-propynyl butylcarbamate (IPBC)] | 88.8 ± 2.7 | 91.66 ± 0.42
CCN(CC)C(=O)N1CCN(C)CC1 [Diethylcarbamazine citrate] + CCCCNC(=O)OCC#CI [3-iodo-2-propynyl butylcarbamate (IPBC)] | 83.4 ± 2.4 | 94.1 ± 1.4
CCN(CCCc1ccccc1)CCCc1ccccc1 [Alverine citrate salt] + CCCCNC(=O)OCC#CI [3-iodo-2-propynyl butylcarbamate (IPBC)] | 78.3 ± 0.79 | 92.4 ± 0.94
CC1=C(C(=O)O)N2C(=O)[C@@H](NC(=O)[C@H](N)c3ccc(O)cc3)[C@H]2SC1 [Cefadroxil] + CCCCNC(=O)OCC#CI [3-iodo-2-propynyl butylcarbamate (IPBC)] | 81.5 ± 1.8 | 88.5 ± 1.5
C=CCN1CCCC1CNC(=O)c1cc2nn[nH]c2cc1OC (centres undefined) [Alizapride hydrochloride] + CCCCNC(=O)OCC#CI [3-iodo-2-propynyl butylcarbamate (IPBC)] | 111.5 ± 0.32 | 107
CC(=O)O[C@H]1CC[C@@]2(C)C(=CC[C@@H]3[C@@H]2CC[C@]2(C)C(=O)CC[C@@H]32)C1 [Dehydroisoandosterone 3-acetate] + CCCCNC(=O)OCC#CI [3-iodo-2-propynyl butylcarbamate (IPBC)] | 70.5 ± 2.5 | 85.7 ± 3
C=C(NC(=O)C(=C)NC(=O)c1csc(C2=N[C@@H]3c4csc(n4)[C@H]4NC(=O)c5csc(n5)[C@H]([C@](C)(O)[C@@H](C)O)NC(=O)[C@H]5CSC(=N5)/C(=C/C)NC(=O)[C@H]([C@@H](C)O)NC(=O)c5csc(n5)[C@]3(CC2)NC(=O)[C@H](C)NC(=O)C(=C)NC(=O)[C@H](C)NC(=O)[C@H]([C@@H](C)CC)N[C@@H]2C=Cc3c([C@H](C)O)cc(nc3[C@H]2O)C(=O)O[C@@H]4C)n1)C(N)=O [Thiostrepton] + CCCCNC(=O)OCC#CI [3-iodo-2-propynyl butylcarbamate (IPBC)] | 101 ± 2.5 | 100 ± 1.6
Cn1c(=O)c2c(ncn2CC(O)CO)n(C)c1=O (centres undefined) [Diprophylline] + CCCCNC(=O)OCC#CI [3-iodo-2-propynyl butylcarbamate (IPBC)] | 84.82 ± 0.64 | 88.3 ± 1.7
CN1C[C@H](CNC(=O)OCc2ccccc2)C[C@@H]2c3cccc4c3c(cn4C)C[C@H]21 [Metergoline] + CCCCNC(=O)OCC#CI [3-iodo-2-propynyl butylcarbamate (IPBC)] | 45.4 ± 15 | 112 ± 9.5
